Experimental data reported in the supplement of paper PMC3334620.
In all, about 33,000 sequences were measured (“E-score (-0.5 to 0.5)”: median about -0.036, highest 2% from about 0.37 on). This is one part of the list.

Biological target: T1, Yer064c (UniProt P40041)
T1 sequence: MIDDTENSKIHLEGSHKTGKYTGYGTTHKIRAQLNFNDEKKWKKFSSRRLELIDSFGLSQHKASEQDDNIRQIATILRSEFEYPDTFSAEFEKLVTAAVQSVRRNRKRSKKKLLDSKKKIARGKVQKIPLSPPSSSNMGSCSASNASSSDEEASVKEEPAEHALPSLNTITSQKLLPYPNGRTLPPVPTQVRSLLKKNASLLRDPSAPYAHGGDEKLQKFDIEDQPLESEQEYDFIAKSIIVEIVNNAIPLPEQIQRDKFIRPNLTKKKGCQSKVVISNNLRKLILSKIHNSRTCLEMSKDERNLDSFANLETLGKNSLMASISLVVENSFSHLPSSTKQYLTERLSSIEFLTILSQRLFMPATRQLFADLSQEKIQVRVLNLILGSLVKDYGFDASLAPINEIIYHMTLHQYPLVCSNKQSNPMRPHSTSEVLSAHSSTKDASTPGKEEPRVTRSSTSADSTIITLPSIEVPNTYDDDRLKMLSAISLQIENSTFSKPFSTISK
Assay: PBM E-score (8-mer binding enrichment) (E-score (-0.5 to 0.5)); higher = stronger / more preferred TF binding; most listed sequences are background and not binding sites
Settings: protein concentration: 200 nM; construct: GST-full length
How it was run: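 The E-score, a modified Wilcoxon-Mann-Whitney statistic, was computed by the Universal PBM Analysis Suite for every ungapped eight-base word pooled with its reverse complement. Scans behind it were normalised with masliner after bound GST-tagged yeast transcription factors were detected with fluorescent anti-GST. The proteins, at about 100-200 nM, had been applied to universal all-10-mer Agilent arrays made double-stranded by primer extension.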

| Sequence | PBM E-score |
| --- | --- |
| AAAGTACA | 0.00803 |
| AGCCGTCC | -0.251 |
| ACATCCAC | -0.0762 |
| GGTGCTGA | 0.0165 |
| AATGGTAC | -0.138 |
| AAAAATAG | 0.0314 |
| CGGCAAGA | -0.115 |
| ACGGTGCT | -0.196 |
| CCGGGTCG | -0.0877 |
| GGCACTAA | -0.1 |
| AGGATGAT | 0.281 |
| ACCGGATG | 0.0682 |
| GGCATCCC | -0.224 |
| GGCTCAGA | 0.107 |
| CGACGCGA | -0.099 |
| ACTAGCAA | 0.094 |
| CCACACAA | -0.18 |
| CGTGGTGA | 0.0571 |
| CATCCAGA | 0.0186 |
| ACCCGATA | 0.0769 |
| AGCCCACT | -0.0505 |
| CGGCGCGA | 0.0121 |

| Sequence | PBM E-score |
| --- | --- |
| GCTGGTAC | -0.27 |
| CCACGCCA | -0.104 |
| CTTGTAGC | -0.156 |
| ACGCGGAC | -0.13 |
| AGCCCCCT | -0.382 |
| GTCGTAGA | 0.16 |
| AGTACCTG | 0.0831 |
| CCATTCTA | -0.0361 |
| ACTTCGTG | 0.134 |
| AGCTACAT | -0.0827 |
| ACGCGGCT | -0.0107 |
| TATCGTCA | -0.243 |
| CGAAAATC | 0.187 |
| CGAGATCA | 0.091 |
| CATTGCCA | 0.0368 |
| CCACTCCA | -0.0978 |
| CCGCGTGA | 0.131 |
| CTTCGGGA | -0.137 |
| AGCCGACG | -0.144 |
| TCAAGCAA | 0.0908 |
| AAGCGATT | 0.203 |
| GAATGGTC | -0.241 |

| Sequence | PBM E-score |
| --- | --- |
| ACAATGGT | -0.0312 |
| CCATAGTC | 0.396 |
| ACCTGTAC | -0.144 |
| AACCCCAA | -0.0412 |
| ATTCCAGG | 0.118 |
| AGACCTCG | -0.0146 |
| CCCGTCCA | -0.205 |
| GATAAGTA | -0.0513 |
| CCCGCATC | -0.156 |
| GATCCGCA | -0.0645 |
| CCTGACAA | -0.124 |
| CGAACGAC | 0.117 |
| CCAGGGTC | -0.202 |
| TACGGCAA | 0.0538 |
| AGGCTGTC | -0.392 |
| CAAGCGTC | -0.267 |
| AGGCGGGA | -0.246 |
| ATGGCTAC | 0.338 |
| CATGCGGG | -0.042 |
| GAGACATC | 0.279 |
| GACTACTA | 0.417 |
| CTATAAGC | -0.178 |

| Sequence | PBM E-score |
| --- | --- |
| AAGAAAAT | -0.048 |
| CGCAATCA | 0.302 |
| CAGGTACG | -0.0656 |
| GCTGCGTA | 0.0273 |
| GCGCGGAA | -0.121 |
| CAGGTGTA | -0.114 |
| GAGACGCA | -0.102 |
| GTCCAATA | -0.00796 |
| GAAGGGCC | -0.246 |
| CAGTGAAC | 0.0428 |
| ACTTTCAA | 0.0563 |
| GTAACCAA | -0.071 |
| GATAAGAC | 0.135 |
| GACGTAAA | -0.16 |
| ACACCGGA | -0.142 |
| GCCTGCGC | -0.216 |
| CAGTGGGG | -0.333 |
| GAGGAAAC | -0.329 |
| TAAATCGA | 0.154 |
| ACCAGGCC | -0.136 |
| CCCGCTAA | -0.255 |
| ACCTATAA | 0.0382 |

| Sequence | PBM E-score |
| --- | --- |
| AACAGATA | 0.0158 |
| ATCGAGTC | 0.389 |
| CTGCTGTC | -0.0761 |
| GACTTACA | 0.31 |
| CACTAGTA | -0.0969 |
| GCGGTGCC | -0.359 |
| GATGCCTA | -0.00818 |
| GATGCCAC | -0.0836 |
| GGTGTATA | -0.125 |
| AGTTTCGC | -0.0135 |
| ACCTTAAC | -0.0243 |
| AACCGTCC | -0.179 |
| ATTAAGAG | 0.143 |
| ACCAGCCC | 0.00477 |
| ATCCGACA | -0.0743 |
| CGTGACAG | -0.0628 |
| CACCACAC | -0.052 |
| CAACATTG | -0.0231 |
| CCGAAGCA | -0.0419 |
| AGCGCGGG | 0.00652 |
| GCTGGATA | -0.214 |
